Results reported in a collection of fitness landscapes (doi:10.1016/j.celrep.2020.107928).
Over roughly 81,000 sequences, “one-hybrid fitness for binding NBS DNA” has its median near -0.1; the highest 2% begin near 0.36. This is one part of the list.

B1: Caulobacter ParB omega fusion; a variant is named by its letters at X, in order, B8GW30 (parent)
chain: MESVVVGEPGMSEGRRGLGRGLSALLGEVDAAPAQAPGEQLGGSREAPIEILQRNPDQPRRTFREEDLEDLSNSIREKGVLQPILVRPSPDTAGEYQIVAGERAWRAAQRAGLKTVPIMVRELDDLAVLEIGIIENVQRADLNVLEEALSYKVLMEKFERTQENIAQTIGKSXSHVANXMRLLXLPDEVQSYLVSGELTAXHARAIAAAADPVALAKQIIEGGLSVRETEALARKAPNLSAGKSKGGRPPRVKDTDTQALESDLSSVLGLDVSIDHRGSTGTLTITYATLEQLDDLCNRLTRGI

Variants of: B1
Experiment: one-hybrid fitness for binding NBS DNA (the Noc-binding site; scaled: cognate 1, non-cognate 0); higher = stronger binding
Details: with NBS DNA site
Method in brief: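 Bacterial one-hybrid selection in E. coli USO rpoZ- hisB- pyrF- with a HIS3 reporter carrying the site 19 bp from the promoter, screening Caulobacter ParB libraries with four specificity codons randomised (NNS). Cells grew 48 hours at 37°C on M9-minus-histidine plus 0.1 mM IPTG and 5 mM 3-AT. Plasmids before and after selection were Illumina-sequenced, three replicate libraries pooled, and variants under 10 reads dropped. Fitness is the log change in variant-to-wild-type read ratio, rescaled to cognate 1, non-cognate 0.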

Variant	one-hybrid fitness for binding NBS DNA
GSAV	≤ 0.2
PDTV	≤ 0.2
QVFN	≤ 0.2
KLCY	≤ 0.2
QYTP	≤ 0.2
SHMA	≤ 0.2
LRGT	≤ 0.2
KDIE	≤ 0.2
PKAI	≤ 0.2
YSSN	≤ 0.2
TQKM	≤ 0.2
MGQR	≤ 0.2
CNAL	≤ 0.2
AAVL	≤ 0.2
IAHR	≤ 0.2
TPAN	≤ 0.2
QTSL	≤ 0.2
RHGK	≤ 0.2
QMYC	≤ 0.2
WYTV	≤ 0.2
ACTA	≤ 0.2
SSMK	≤ 0.2
PWEG	≤ 0.2
ERFN	≤ 0.2
HYAF	≤ 0.2
SDTA	≤ 0.2

Variant	one-hybrid fitness for binding NBS DNA
TQVL	≤ 0.2
RVPY	≤ 0.2
KAHS	≤ 0.2
YHIG	≤ 0.2
WTGV	≤ 0.2
NTFG	≤ 0.2
ALYA	≤ 0.2
STDT	≤ 0.2
LYFV	≤ 0.2
RAFS	0.238
HYKV	≤ 0.2
WLRP	≤ 0.2
TCHW	≤ 0.2
AVVT	≤ 0.2
QVPA	≤ 0.2
QKIV	≤ 0.2
SWLE	≤ 0.2
CMDS	≤ 0.2
CMHR	≤ 0.2
LPLC	≤ 0.2
ETGT	≤ 0.2
VFMR	≤ 0.2
VWLR	≤ 0.2
ANIT	≤ 0.2
QSAS	0.356
SKHE	≤ 0.2

Variant	one-hybrid fitness for binding NBS DNA
YQTL	≤ 0.2
WYDS	≤ 0.2
VNVL	≤ 0.2
HDRK	≤ 0.2
LTSK	≤ 0.2
WIAV	≤ 0.2
PSSH	≤ 0.2
QSAR	0.526
ANSM	≤ 0.2
TETP	≤ 0.2
LQGR	≤ 0.2
GPFG	≤ 0.2
ERYA	≤ 0.2
CCQT	≤ 0.2
TYIN	≤ 0.2
DYTT	≤ 0.2
PWAE	≤ 0.2
NVRG	≤ 0.2
QIHE	≤ 0.2
YQDA	≤ 0.2
WHVR	≤ 0.2
GFVI	≤ 0.2
EARG	≤ 0.2
PSID	≤ 0.2
VLIM	≤ 0.2
GNDP	≤ 0.2

Variant	one-hybrid fitness for binding NBS DNA
NSPR	≤ 0.2
RRSG	0.338
SGMT	≤ 0.2
IHSS	≤ 0.2
CQRG	≤ 0.2
LEDE	≤ 0.2
MWPG	≤ 0.2
GLRQ	≤ 0.2
MFDN	≤ 0.2
QPHH	≤ 0.2
YVWG	≤ 0.2
FWNS	≤ 0.2
VDQS	≤ 0.2
PKVC	≤ 0.2
FLPV	≤ 0.2
QNKC	≤ 0.2
IERT	≤ 0.2
ESRI	≤ 0.2
RMCF	≤ 0.2
RKLR	0.525
QPTQ	≤ 0.2
CQAF	≤ 0.2
TGEL	≤ 0.2
TYWR	≤ 0.2
RNVT	≤ 0.2
ETVG	≤ 0.2

Variant	one-hybrid fitness for binding NBS DNA
TMYC	≤ 0.2
CAPF	≤ 0.2
QYTH	0.202
AHHR	≤ 0.2
TPGI	≤ 0.2
IKTH	≤ 0.2
VSQH	≤ 0.2
QIFS	≤ 0.2
SKFM	≤ 0.2
SREY	≤ 0.2
YAKR	≤ 0.2
RQEI	≤ 0.2
PLPG	≤ 0.2
SLFS	≤ 0.2
TLAE	≤ 0.2
MLMR	≤ 0.2
TEPN	≤ 0.2
QIRG	≤ 0.2
TTRC	≤ 0.2
HVEC	≤ 0.2
AMWT	≤ 0.2
SQGV	≤ 0.2
AWLK	≤ 0.2
VVGM	≤ 0.2
TMRW	≤ 0.2
LGVV	≤ 0.2

Variant	one-hybrid fitness for binding NBS DNA
ALCW	≤ 0.2
HTIL	≤ 0.2
ATRM	≤ 0.2
IEDS	≤ 0.2
LMDW	≤ 0.2
CLQI	≤ 0.2
VHNC	≤ 0.2
GVMA	≤ 0.2
PVSH	≤ 0.2
HLVT	≤ 0.2
QRLK	0.329
LQYH	≤ 0.2
LCTY	≤ 0.2
KRAI	≤ 0.2
QINT	0.462
YQND	≤ 0.2
CTCS	≤ 0.2
HRMN	≤ 0.2
KDYF	≤ 0.2
PCDT	≤ 0.2
AYES	≤ 0.2
QHYA	0.291
YGSS	≤ 0.2
